# Literature values as cited in article PMC9502701 (Molecules, 2022).
# Test system: influenza NA
# Settings: cited from earlier work
SMILES,influenza NA inhibitory activity (in words),"NA inhibitory activity (in words), compared with positive control apigenin"
"C=C[C@H]1[C@H](O[C@@H]2O[C@H](CO)[C@@H](O)[C@H](O)[C@H]2O)OC=C(C(=O)OC)[C@H]1CC(=O)O [Secoxyloganin, secoxyloganin]",weak,–
"O=C(/C=C/c1ccc(O)c(O)c1)O[C@H]1[C@H](O)C[C@](O)(C(=O)O)C[C@H]1O [Cryptochlorogenic acid, cryptochlorogenic acid]",–,superior
"O=C(/C=C/c1ccc(O)c(O)c1)O[C@@H]1C[C@@](O)(C(=O)O)C[C@@H](O)[C@@H]1O [Neochlorogenic acid, neochlorogenic acid]",–,superior
"O=C(/C=C/c1ccc(O)c(O)c1)O[C@@H]1[C@H](O)C[C@@](O)(C(=O)O)C[C@H]1OC(=O)/C=C/c1ccc(O)c(O)c1 [4,5-Di-O-caffeoylquinic acid]",–,superior
"C=C[C@H]1[C@H](O[C@@H]2O[C@H](CO)[C@@H](O)[C@H](O)[C@H]2O)OC=C2C(=O)OCC[C@H]21 [Sweroside, sweroside]",weak,–
"O=C(/C=C/c1ccc(O)c(O)c1)O[C@@H]1C[C@](O)(C(=O)O)C[C@@H](O)[C@H]1O [Chlorogenic acid, chlorogenic acid]",–,superior
